Results: the supplement of paper PMC12632987
The full ranking holds about 2,300 sequences; the median of “median log2 fold change of GCK-ALFA target abundance (FLAG IP / Myc IP barcode read proportion)” is about 0.095, and the lowest 2% start at about -0.47. The list shows a part of the results.

B1: LC3A_3_1485 (protein)
chain: MEELLEEARKVLKERGASEEQIEAVLKDIKEILELGYEETVKEFIELLKEHPDLSPEQIVAAAGTILDKVKEEDLTEEEAVEYTRKIMEDVAEIEELEEE
B2: LC3A_free_39_2182 (protein)
chain: SAEELEETERRLLELAAEEGEEARRVAERLLELVEGNLELVRLVLEGAERVRREGGDVLEMLRDLLEAVEEARAAGLSEEELLERLREIIEDHLNLIPLD
B3: LC3A_free_39_2187 (protein)
chain: SSSETEKYIEEALELAEEEGEETKELAEEIIEIVGKELDYAKELLELLKELKKEGVDLKEALEEALRLAKELKEQGKSKEEIAKEVLELLRDKINLIPID
B4: LC3A_28_1050 (protein)
chain: DATRAALEAALAAARAAAAAGEEALVTLTINKDSTDEDVDLVLETMEEIAEIGRTLPRVTIIVDVDHPNKEEVTTRIAEKGDELEARYPNVTVIIALSEE
B5: LC3A_132_248 (protein)
chain: SEEELKEALEELKEILEKIVEALKNGEDPLPLIVELEEKALEIAEKLSLEETEELIDEAKEYAEELFEEELDPNDEEARRTLDIIEMLLDGVLIEKELKS
B6: LC3A_147_492 (protein)
chain: AEIDIDILVKDEESAKEVVEKIKEIVEKMRKKGVEVELEVEIEKLDENTYYVRIRIRIRAPTKEEEEAAANEIISEIDELIEKMKDKILAAIISRELLEE
B7: LC3A_28_1079 (protein)
chain: SAIAEQVAAALAEARAAAAAGEEAVLTITVDENATEEDIEIVIEGLKELAELAKTGGKVSVIIDLDGDIPEEHIDKLADAAEAVEAANPNLTVIIALPDE
B8: LC3A_3_1775 (protein)
chain: SEEIIEEARKLLRELGRSEETIEAAERAITALLEKGYEKAAEKLIELVKENADLDDEDLLAMFEEILEVVETQDLSEEEVIKRIEEEARLARLAHEMDSL
B9: LC3A_3_1747 (protein)
chain: MEEKLKEVRELLKEMGKSEETIEGALELVKELLERGFEKAVETFLELLKESEDLSDEILLDMIKDILDYVTNNDINEEEAIKKIKEEFKIAKNENEIIEL
B10: LC3A_free_39_2247 (protein)
chain: MEEEMEEADRELEELAETLSPEARKALKELRELLKGNVEALRIVAEGVRELLEEGGDVLAFLKEAVELVKELQAAGKSDEEINEELRELKEDFLNLIPLE
B11: LC3A_3_1498 (protein)
chain: REELLERLREVLEELGASEEQIERVLAAAQRILDKGLENTVETLIELFEENRDLSPEQVLTAVEIVADEVEEKNLDEESAIEYAKRIVEDVKEIEEIEEE
B12: LC3A_28_872 (protein)
chain: SHIDEQVEAVRKELEEQAKLGEDAVVTVKITSSMSLEEALELMKRVLALAKEYVKETGLKVSIVVDYDGDQETLDAVADLAEEAEKENPKITVIIALPEE
B13: LC3A_61_2037 (protein)
chain: MEIDVSKVPDKELAEEIKKAAAKVLKAAAALDPELAEEIAALIQEIVATGLAAEELLKLLKEANKKLEAAKTDEEKLAILEELLEDLKDLANLIPLDEEE
B14: LC3A_3_1596 (protein)
chain: AAALVEAALARLRAAGLSPAVLAAARRLLEALAARGYERAIERLTEALLELRDAPEELLVAMLEELLAIVETEDLSEEEVIEEIERLARLARLEAEIEEL
B15: LC3A_132_311 (protein)
chain: SEEKYKEIKEELEKKLKEAEKNIKDKEKVEKLLEEIRKLLEEAEEELSPEQVAELYDEVADRLWKLSQKALEAGQEDVALELDAAAIEAASRSLEAEKLI
B16: LC3A_28_999 (protein)
chain: MEIEKELEEALKKAKEAAAKGEPVVITIKVPGNANEEDIEKVIEAMYEIAEILKDVKGSAIIIDVDGNLKQEHLDKLMDAAEEIEKKYPNVTVIIALDED
B17: LC3A_28_1203 (protein)
chain: SKTKENAEAALKKAKELLAAGEEGVIELKIEGEITEEETEYAIEALEEIAKLAAESGKISIIIDIDGKVPEEHANKIIDKADELEKKYPNVNIIIALEER
B18: LC3A_28_1003 (protein)
chain: NPIEKQLEAALKEAKKAAAEGKPVVLTIKVSGTATEEDIEKIIEKLEEIAEILKDIKGAAIIIDIDGKVPQEFIDKLLDKGEEIEEKYPNITVIFALDED
B19: LC3A_147_502 (protein)
chain: YLLTVTIDIIVKNATEEVKEHVKKIEEELKKKGFKVNVKIEVEKLDEDTDYINITIEVEAETEEEAQEAADYIIDSWDEFEEKNKDKILGSLISVEIEKI
B20: LC3A_3_1549 (protein)
chain: MEELLEETLKRLKEAGASEEVIEAVRKALQALIDRGYEEALKEFAREVEELIGLPDEILLDFAEEVLRAIEEEDLNEEELIERIKEIATIAKNEGEIIEL
B21: LC3A_28_647 (protein)
chain: SALEEQLAAALAEARAAAAAGEPVVVTLTVPGDADEEDVEKVLEAMEEIAEILKDVKGSAIVVDIERGVKEEYKDKIIDKAEELEKKYPNVTVIIALEEE
B22: LC3A_28_1244 (protein)
chain: SAVDEQIAAAKAAAKEAVAAGEEALITLTVTGDTTEADVDKIIAAMEEIAELAKDLPALDIIIDVSAGVPQEHIDKLADAAEEIEEKYPNVTVIIALEER
B23: LC3A_17_596 (protein)
chain: MEELKEELKRLLKEAEELIKKLKELRPEAYPELAAQLEKAKKLIEEGKLYEAAKQLAELARQIADIFDELEEEGVEEAAPLEMEAGGIEVEAERLLLKLE
B24: LC3A_3_1913 (protein)
chain: MEEKLKKLEEQAKKLGHSEEVIKLALEAAKLFLEAGDEEGFELLFEMLKALKGLDEGTQKAFLEDLLAELKKLGNDKEARLKAAKEFLKLAKNANEIIEI
B25: LC3A_28_877 (protein)
chain: MSVEEALERARAEVEAAVARGEEALVEVDITEPISEEEARELVRGLEEIVRLGASLPRLDIVISLSRAVSEEAQNIIADGAERIEERYPHVTVIIALEEE
B26: LC3A_free_46_2365 (protein)
chain: MEIDIDILAEGKSEEEVEAIAKELKERIKKAAEEEGAEVEIEVEISKDEDGNWFIRVRIKVKAKTKEQKQAVVQKIVEIVDEISEEEGVAAIINIEDIEE
B27: LC3A_free_26_2130 (protein)
chain: SDFIDIYALDEALDYIEEAIKLLEEKGGKYKELLKLLKEAKKLLEEETLESLKKALELLKKAKKLIKEKKPEDPEFAKKLLELLERAIKLLEEVIEIMES
B28: LC3A_free_8_2488 (protein)
chain: SSKELATLASNLLSEFEEELVKKAKELGADRLDILELELEIGEIIAEVISLSDESPEKILEAVKEGLERVIEIAKEISEELAELAKKLSEKVIKEIEKAI
B29: LC3A_147_489 (protein)
chain: MEVDIDILVKDEETAKELVEKIKEIVEELKKEGIEVELKIEISKIEEGEYYVEVTITIKAETKEKEEEAANKVVKKVDEIIEENKDRVLAALISISEIEE

target: MAP1LC3A, Q9H492; experiment: median log2 fold change of GCK-ALFA target abundance (FLAG IP / Myc IP barcode read proportion) (log2 ratio); each designed protein is fused to an ALFA-tag nanobody in HEK293 cells to bring the named protein to FLAG-tagged glucokinase (GCK); Myc marks an untargeted standard; higher = target protein stabilised (more abundant); settings: target protein: 3xFLAG-MCP-GCK-ALFA reporter; HEK293 landing pad (RPLP)
Procedure, shortened: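 HEK293 landing-pad cells received a recombined binder library fused to the ALFA nanobody and were induced with 2 μg mL^−1 doxycycline, then transfected with a plasmid encoding a FLAG-tagged target and a Myc-tagged standard. Lysates were collected after 48 h for anti-FLAG and anti-Myc immunoprecipitation, and the circular RNA barcodes were reverse transcribed, amplified and sequenced. Target abundance for each binder is the median log2 ratio of FLAG to Myc barcode read proportions. Barcodes had to reach a proportion of at least 10^−7 in both replicates, each binder needed at least 3 barcodes per replicate, a pseudocount of 10^−6 was applied, and the two replicates were pooled.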

Binder | median log2 fold change
B1 | 0.278
B2 | 0.164
B3 | -0.0445
B4 | -0.231
B5 | -0.698
B6 | 0.0362
B7 | -0.288
B8 | 0.15
B9 | 0.155
B10 | 0.0889
B11 | 0.369
B12 | -0.335
B13 | -0.037
B14 | 0.0711
B15 | 0.256
B16 | 0.146
B17 | -0.0441
B18 | -0.112
B19 | -0.329
B20 | 0.258
B21 | -0.381
B22 | -0.00509
B23 | 0.00398
B24 | 0.282
B25 | 0.233
B26 | -0.0713
B27 | -0.271
B28 | -0.0232
B29 | -0.0172
